This experiment concerns the target T1, GFP-tagged TEX264, wild type (UniProt Q9Y6I9 1-313).
T1 construct: TEX264, wild type; also called GFP-tagged WT TEX264; source: ΔTEX264 HEK293, transiently transfected, captured on GFP trap beads and washed
T1 sequence (looked up): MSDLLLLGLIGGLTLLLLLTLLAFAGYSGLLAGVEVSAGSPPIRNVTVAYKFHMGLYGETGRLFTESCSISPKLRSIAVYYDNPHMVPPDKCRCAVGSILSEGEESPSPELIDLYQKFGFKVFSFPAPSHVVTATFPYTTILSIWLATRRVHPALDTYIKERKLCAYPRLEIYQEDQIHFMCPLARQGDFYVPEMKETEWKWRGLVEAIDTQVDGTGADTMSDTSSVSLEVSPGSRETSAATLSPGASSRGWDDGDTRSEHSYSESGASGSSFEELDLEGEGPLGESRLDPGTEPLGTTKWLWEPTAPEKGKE
In words: pull-down; GFP- or FLAG-tagged TEX264 variants captured from ΔTEX264 HEK293 lysate (500 mM NaCl, 3% Triton X-100) on GFP trap or anti-FLAG beads, washed, incubated with 1 μg free SUMO1 or SUMO2 for 90 min at 4 °C. The note with it: both partners purified.

B1: free SUMO1 (natural protein)
chain: not shown
notes: SUMO1, free (not conjugated); source: bought: Boston Biochem
For the molecule B1, the binding result is recorded as “binds”.

The record behind these values is paper PMC7062751 (Nature Communications, 2020).
